# Several values for one entry are separate records, joined by “and”; a condition that tells them apart may be missing. Identical values can stand only once. Some of the results follow. These are further read-outs of the screen, such as a control signal, another cell line or another target. No call is given for them.
# Assays:
# Assay in all cases: Primary Screen for Target Class Profiling of Small Molecule Inhibitors of Methyltransferases
# [1] = target: Glycine N-methyltransferase (Homo sapiens) (UniProt Q14749); details: purified enzyme, MTase-Glo SAH luminescence; measured here: GNMT inhibition; at 40 µM; stronger effect = lower value
# In short: (§1)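 Each enzyme was assayed with SAM and its substrate. SAH formation detected by MTase-Glo luminescence; single-point 40 uM screen[…].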
# [2] = target: Guanidinoacetate N-methyltransferase (Homo sapiens) (UniProt Q14353); details: purified enzyme, MTase-Glo SAH luminescence; measured here: GAMT inhibition; at 40 µM; stronger effect = lower value
# In short: as §1
# [3] = target: Histamine N-methyltransferase (Homo sapiens) (UniProt P50135); details: purified enzyme, MTase-Glo SAH luminescence; measured here: HNMT inhibition; at 40 µM; stronger effect = lower value
# In short: as §1
# [4] = target: Nicotinamide N-methyltransferase (Homo sapiens) (UniProt P40261); details: purified enzyme, MTase-Glo SAH luminescence; measured here: NNMT inhibition; at 40 µM; stronger effect = lower value
# In short: as §1
# [5] = target: Phenylethanolamine N-methyltransferase (Homo sapiens) (UniProt P11086); details: purified enzyme, MTase-Glo SAH luminescence; measured here: PNMT inhibition; at 40 µM; stronger effect = lower value
# In short: as §1
# % is scaled to controls: 0 for no effect and ±100 for the full control effect.
Structure (SMILES),"activity change, negative = inhibition [1]","activity change, negative = inhibition [2]","activity change, negative = inhibition [3]","activity change, negative = inhibition [4]","activity change, negative = inhibition [5]"
c1ccc(CN(Cc2nc(-c3ccccn3)no2)CC2CC2)cc1,-1.15%,3.59%,0.891%,-5.15%,10.9%
CCC(C)NC(=O)CCc1nnc2n(Cc3ccc(Cl)cc3)c(=O)c3ccccc3n12 (stereo not given),-10%,3.22%,1.02%,-0.223%,-6.46%
CN(C)CCCC1(c2ccc(F)cc2)OCc2cc(C#N)ccc21 (stereo not given),-4.17% and 2.67%,11.7% and 14.1%,-68% and -59%,-9.81% and -3.38%,5.17% and 6.36%
Nn1nnc2ccccc21,-5.67%,4.96%,-1.45%,-6.6%,6.66%
CCN(CCCN1C(=O)c2cc3occc3n2CC1(C)C(=O)NC1CCCCC1)c1cccc(C)c1 (stereo not given),-0.083%,3.6%,-0.127%,0.852%,-0.072%
O=C(NCc1ccncc1)C(=O)NCC(c1cccnc1)N1CCOCC1 (stereo not given),-5.46%,-1.02%,7.85%,-13.1%,-0.714%
C/C=C1/C[N+](C)([O-])C2Cc3c([nH]c4ccccc34)C(=O)CC1C2C(=O)OC (stereo not given),-4.77%,-2.98%,5.47%,-18%,2.35%
CN(C)C(=O)c1nc(-c2cccc(C(F)(F)F)c2)c2cnccn12,-5.33%,-4.56%,-3.05%,-5.14%,-1.81%
COc1ccc(OC)c(CCNC(=O)Cn2ccc3cc(S(=O)(=O)N4CCCCC4)ccc32)c1,-5.36%,-4.04%,-10.4%,-12.2%,-21.6%
O=C(c1ccc(Cl)s1)N1CCC2(COc3ncccc3S(=O)(=O)N2)C1 (stereo not given),-8.82%,-8.86%,-3.13%,-16.3%,-10.9%
CCCC(CCC)C(=O)O,7.86%,14.3%,12.4%,-5.04%,-0.25%
COC(=O)N(C)Cc1cccc(C(F)(F)F)c1,-4.59%,-4.95%,-1.76%,-6.61%,-6.37%
CCC(C)NC(=O)c1ccc2c(=O)n(C)c3nnc(SCC(=O)c4ccc(OC)cc4)n3c2c1 (stereo not given),5.58%,0.257%,5.79%,8.7%,5.98%
COc1ccc(-c2cc3n(n2)CC(C)(C(=O)NC2CCCCC2)N(Cc2cccc(F)c2)C3=O)cc1 (stereo not given),-2.81%,0.938%,-0.795%,-0.838%,-7.06%
Cc1ccccc1NC(=O)N1Cc2c(sc3c2CCCC3)-n2cccc2C1c1cc(F)cc(F)c1 (stereo not given),-5.87%,1.83%,-2.86%,-7.09%,-2.34%
O=C(NCc1ccncc1)c1nc2c(o1)CCN(CCCc1ccccc1)CC2,-12.6%,-6.44%,-10.9%,-10.4%,-45.9%
CC(C)(C)C(=O)Nc1nc2c(s1)C[C@@H]1[C@](C)(CO)[C@H](O)CC[C@@]1(C)[C@@H]2CC(=O)O,-3.6%,-3.04%,0.307%,-3.29%,3.12%
O=C(c1ccc(OCCN2CCCCC2)cc1)c1c(-c2ccc(O)cc2)sc2cc(O)ccc12,-3.19%,8.15%,-33%,-11.8%,-3.84%
O=C1c2ccccc2-c2n[nH]c3cccc1c23,-36.7%,-1.16%,-3.49%,-15.4%,-6.37%
COc1cc(Cl)ccc1C(=O)N1CC[C@@H]2CN(S(C)(=O)=O)[C@@H]2C1,1.58%,-6.37%,2.37%,0.472%,1.02%
COc1ccc(NC(=O)Cn2nc3n(Cc4ccccc4)c(=O)c4ccccc4n3c2=O)cc1OC,3.71%,0%,8.84%,-0.964%,4.46%
C[C@@]1(O)CCN(C2CCN(c3ccc(F)cc3)CC2)C[C@@H]1O,-5.13%,-6.09%,0.125%,-5%,-1.02%
CC1(C(=O)NC2CCCC2)Cn2c(nc3ccccc32)C(=O)N1CCCc1ccccc1 (stereo not given),3.57%,0%,6.13%,9.84%,1.72%
CCCN1C(=O)c2cc(C(=O)NC3CCCC3)nn2CC1(C)C(=O)NC1CCCC1 (stereo not given),7.23%,0%,5.46%,7.62%,4.14%
CCOc1ccc(CN2C(=O)c3cc4ccccc4n3CC2(C)C(=O)NC2CCCCC2)cc1 (stereo not given),-3.32%,1.86%,1.01%,-1.08%,-4.51%
COc1ccc2nc(NC(=O)Cn3c(=O)oc4cc(S(=O)(=O)NC(C)C)ccc43)sc2c1,-3.87%,5.3%,0.126%,-4.87%,-28.1%
COC(=O)c1ncn2c1C(=O)N(Cc1cccs1)C(C)(C(=O)NC1CCCCC1)C2 (stereo not given),6.07%,5.49%,9.79%,9.25%,5.02%
CCCC1c2ccc(C)n2CCN1C(=O)Nc1cc(C)ccc1C (stereo not given),-5.94%,2.44%,-10.8%,6.39%,-3.48%
O=c1c2ccccc2n2c(-c3cccc(Cl)c3)nnc2n1Cc1ccc(F)cc1,-3.71%,2.61%,3.76%,-2.75%,1.48%
COc1cc2c(c(OC)c1OC)-c1ccc(OC)c(=O)cc1[C@@H](NC(C)=O)CC2,-11.2%,2.38%,-2.06%,-5.57%,8.54%

# From PubChem BioAssay AID1745853 (National Center for Advancing Translational Sciences (NCATS), 2022)
